# The other results are listed elsewhere or left out. This is a noisy data set.
# T1: CSKP_Pkinase__O14936_1_340
# T1 chain: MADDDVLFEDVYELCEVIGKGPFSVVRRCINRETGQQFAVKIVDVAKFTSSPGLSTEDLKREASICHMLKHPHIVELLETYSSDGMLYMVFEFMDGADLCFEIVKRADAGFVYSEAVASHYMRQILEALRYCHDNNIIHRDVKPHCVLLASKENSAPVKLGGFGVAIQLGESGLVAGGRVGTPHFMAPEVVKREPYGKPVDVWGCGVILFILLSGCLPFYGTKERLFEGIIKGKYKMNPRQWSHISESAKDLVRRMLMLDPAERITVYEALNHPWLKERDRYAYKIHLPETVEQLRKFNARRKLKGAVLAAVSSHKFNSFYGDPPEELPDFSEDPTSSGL
# T2: TLN1_PTB__Q9Y490_309_401
# T2 chain: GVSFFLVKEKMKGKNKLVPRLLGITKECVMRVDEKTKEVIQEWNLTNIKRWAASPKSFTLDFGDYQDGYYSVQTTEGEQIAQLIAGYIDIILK
# T3: TLN2_PTB__Q9Y4G6_312_417
# T3 chain: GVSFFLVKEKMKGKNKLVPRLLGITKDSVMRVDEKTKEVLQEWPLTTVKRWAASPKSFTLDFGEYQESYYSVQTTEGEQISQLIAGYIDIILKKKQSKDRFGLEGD
# T4: CSK21_Pkinase__P68400_1_335
# T4 chain: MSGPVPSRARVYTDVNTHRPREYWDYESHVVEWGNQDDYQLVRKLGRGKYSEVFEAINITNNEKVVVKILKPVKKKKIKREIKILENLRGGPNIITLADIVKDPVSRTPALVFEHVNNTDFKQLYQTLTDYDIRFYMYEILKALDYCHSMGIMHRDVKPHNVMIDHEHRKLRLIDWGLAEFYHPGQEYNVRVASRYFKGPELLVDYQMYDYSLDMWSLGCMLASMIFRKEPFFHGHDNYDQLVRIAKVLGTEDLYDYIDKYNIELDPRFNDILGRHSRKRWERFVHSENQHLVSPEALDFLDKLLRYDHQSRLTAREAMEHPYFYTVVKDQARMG
# Tests used:
# Assay in all cases: mutation enrichment score (mutant vs wild-type peptide binding to bait); baits are purified protein domains named by gene / domain / UniProt id / residues; peptides come from disordered regions of human proteins; higher = mutation enhances binding relative to wild type
# [1] = biological target: T1, CSKP_Pkinase__O14936_1_340; conditions: wild-type window: …
# [2] = biological target: GABARAPL1_ATG8__Q9H0R8_2_115; conditions: wild-type window: …
# [3] = biological target: T2, TLN1_PTB__Q9Y490_309_401; conditions: number of wild-type / mutant comparisons summed (bounds the score): 12; paper call: no_effect; wild-type window: …
# [4] = biological target: T3, TLN2_PTB__Q9Y4G6_312_417; conditions: number of wild-type / mutant comparisons summed (bounds the score): 12; paper call: no_effect; wild-type window: …
# [5] = biological target: T4, CSK21_Pkinase__P68400_1_335; conditions: number of wild-type / mutant comparisons summed (bounds the score): 6; paper call: no_effect; wild-type window: …
# [6] = biological target: DMD_WW-EF__P11532_3055_3088; conditions: number of wild-type / mutant comparisons summed (bounds the score): 6; paper call: no_effect; wild-type window: …
# [7] = biological target: NEDD4_WW_2_P46934_765_803; conditions: number of wild-type / mutant comparisons summed (bounds the score): 6; paper call: no_effect; wild-type window: …
# [8] = biological target: SMURF2_WW_3_Q9HAU4_298_330; conditions: number of wild-type / mutant comparisons summed (bounds the score): 6; paper call: no_effect; wild-type window: …
# [9] = biological target: WWTR1_WW__Q9GZV5_122_160; conditions: number of wild-type / mutant comparisons summed (bounds the score): 6; paper call: no_effect; wild-type window: …
# [10] = number of wild-type / mutant comparisons summed (bounds the score): 6, paper call: no_effect
# [11] = number of wild-type / mutant comparisons summed (bounds the score): 12, paper call: no_effect
# [12] = number of wild-type / mutant comparisons summed (bounds the score): 18, paper call: diminished
# [13] = number of wild-type / mutant comparisons summed (bounds the score): 12, paper call: enhanced
# [14] = number of wild-type / mutant comparisons summed (bounds the score): 6, paper call: enhanced
# WWTR1_WW__Q9GZV5_122_160, sequence (chain, as listed by the source): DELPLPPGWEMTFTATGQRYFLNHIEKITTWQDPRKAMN
# NEDD4_WW_2_P46934_765_803, sequence (chain, as listed by the source): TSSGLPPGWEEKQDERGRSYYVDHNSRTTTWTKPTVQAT
binder,measurement,setting,value
AGAGATHSPPTDLVWKAQNTRGCGNSLRTALINSTGEEVAM [W520R W520R],mutation enrichment score,[1]; [10],0.22
AGAGATHSPPTDLVWKAQNTGGCGNSLRTALINSTGEEVAM [W520G W520G],mutation enrichment score,[1]; [11],-2
AGAGATHSPPTDLVWKAQNTSGCGNSLRTALINSTGEEVAM [W520S W520S],mutation enrichment score,[1]; [10],-2
AESKTLIYQMAPAVSKTEDVLVRIEDCPINNPRSGRSPTGN [W2658L W2658L],mutation enrichment score,[1]; [12],-9
same,mutation enrichment score,[2]; [12],-7
LVITYGLNAGAFYALSTLLNPMVIWHYPGEEVNAGRIGLTI [R333P R333P],mutation enrichment score,[1]; [13],10
same,mutation enrichment score,[3],1.8
same,mutation enrichment score,[4],0.26
QSELQPPAPSEDIWKKFELLSTPPLSPSRRSGLCSPSYVAV [P57S P57S],mutation enrichment score,[1]; [11],1.7
WAAFHPTMPLIVSGADDRQVNIWRMNESKAWEVDTCRGHYN [K230N K230N],mutation enrichment score,[1]; [14],6
YCDEEENFYQQQQQSELQPPVPSEDIWKKFELLPTPPLSPS [A44V A44V],mutation enrichment score,[1]; [13],6
SELQPPAPSEDIWKKFELLPAPPLSPSRRSGLCSPSYVAVT [T58A T58A],mutation enrichment score,[1]; [10],-4
SELQPPAPSEDIWKKFELLPSPPLSPSRRSGLCSPSYVAVT [T58S T58S],mutation enrichment score,[1]; [10],3.8
SELQPPAPSEDIWKKFELLPIPPLSPSRRSGLCSPSYVAVT [T58I T58I],mutation enrichment score,[1]; [10],-4
SELQPPAPSEDIWKKFELLPPPPLSPSRRSGLCSPSYVAVT [T58P T58P],mutation enrichment score,[1]; [11],2
QFETADDEDFIWVQENIDEIVLQLQKLTGQQGEEPSLVSPS [I3558V I3558V],mutation enrichment score,[5],1
same,mutation enrichment score,[2]; [11],0
LSMPSTSHCTPPPPYPTDCSTVSFLARLGCSSCLDYFTTQG [I549T I549T],mutation enrichment score,[6],-2.4
same,mutation enrichment score,[7],-2.4
same,mutation enrichment score,[8],-1.8
same,mutation enrichment score,[9],-1.5
TWNPPRDDGGSKITNYVVERQATDSEVWHKLSSTVKDTNFK [R14750Q R14750Q],mutation enrichment score,[1]; [10],3.1
VNPEAIDTTCNSVDLTWQPPHHDGGSKILGYIVEYQKVGDE [R18064H R18064H],mutation enrichment score,[6],-1
LDPYEQWSDQEIWKVADEVGPRSVIEQFPGKLDFVLVDGGC [L1324P L1324P],mutation enrichment score,[1]; [10],-3.5
VFIFSGTFRKNLDPYEQWSDKEIWKVADEVGLRSVIEQFPG [Q1313K Q1313K],mutation enrichment score,[1]; [11],-0.27
HSYDVLVAMTIFFNTHNEPVWQLAIFCPHVALQTTICEVLE [R297W R297W],mutation enrichment score,[1]; [11],4
TTIEGAEPISVVWFKDKGEIIRESDNIWISYSENIATLQFS [V8460I V8460I],mutation enrichment score,[1]; [10],3.5
MSDSWVPNSASGQDPGGRRRLWAE [S4L S4L],mutation enrichment score,[1]; [14],6
VVTIWAAGAGATHSPPTDLVRKAQNTWGCGNSLRTALINST [W514R W514R],mutation enrichment score,[1]; [10],-2
TDHGAEIVYKSPVVSGDTSPWHLSNVSSTGSIDMVDSPQLA [R723W R723W],mutation enrichment score,[1]; [13],12
FYCDEEENFYQQQQQSELQPLAPSEDIWKKFELLPTPPLSP [P43L P43L],mutation enrichment score,[1]; [10],2
ADGAALEHSEEDGSIYEMADYPDIWVRSRPCARDAHRKEIC [D1216Y D1216Y],mutation enrichment score,[1]; [14],6
ADGAALEHSEEDGSIYEMADNPDIWVRSRPCARDAHRKEIC [D1216N D1216N],mutation enrichment score,[1]; [10],1

# From the supplement of paper PMC11369174, “Proteome-scale characterisation of motif-based interactome rewiring by disease mutations” (Molecular Systems Biology, 2024)
